The structures appear in SMILES notation. About 120 (0.25%) of roughly 48,000 compounds were called active. Not shown: some 4% with an inconclusive outcome. The call rests on the fitted dose curve; in most records, active means well fitted activation curve with a large enough effect; inconclusive means small, poorly fitted or top-dose-only effect, or another doubt; inactive means no such curve, though single readings can be large or run the other way. Some of the results follow.

A short description of the experiment: Primary qHTS for Identification of Small Molecule Activators of Huntingtin-Antisense Promoter Activity. Further: nearly all actives have a fitted effect of over 55% in size. As to conditions: HEK293 HTT-AS promoter firefly luciferase reporter (activity 0% = vehicle and -100% = no light), 24 h; series mostly up to 57.5 µM; activity change, positive = activation: at the top concentration. Put shortly: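 HEK293 cells carrying firefly luciferase reporters were seeded at 2,500 per well in Opti-MEM and cultured for 24 h. They were then treated with compounds at up to 57.5 uM final for 24 h at 37 degrees C before Dual-Glo luminescence readout.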
(qHTS replaces the single test concentration by a dilution series.)
For `CCOc1ccc(NC(=O)Cn2c(=O)n(Cc3ccco3)c(=O)c3oc4ccccc4c32)cc1`, the “activity change, positive = activation” value was inactive: -15.4%. On to `CC1CN(C(=O)Nc2ccc(C(=O)NCCc3ccccc3)cc2)c2ccccc2S1` (stereo not drawn), for which the “activity change, positive = activation” value was inactive: -5.52%. Consider `CCOc1cc(-c2ccc(OC(=O)c3ccccc3F)cc2)cc(=O)c2c(C)oc(C)c12`, for which the “activity change, positive = activation” value was inactive: -19.3%. For the molecule `CCOc1ccc(C(=O)Nc2cc(-c3nc4ccccc4o3)ccc2C)cc1Cl`, the “activity change, positive = activation” value is inactive: 0.859%.

For the molecule `Cc1cc(C)nc(NS(=O)(=O)c2ccc(NC(=O)COc3ccc(Cl)cc3C)cc2)n1`, the “activity change, positive = activation” value is inactive: -24.4%. `CCN(Cc1ccccc1)C(=O)c1c(C)oc2ncn(C)c(=O)c12`: the “activity change, positive = activation” value is inactive: -8.65%.

Turning to `O=C(CSc1nccn1Cc1ccccc1)NCc1ccc(F)cc1`, the “activity change, positive = activation” value was inactive: -5.54%.

On to `COc1ccc(-n2nc3ccc(NC(=O)c4ccc(-c5cc(Cl)ccc5Cl)o4)cc3n2)cc1`, for which the “activity change, positive = activation” value was inactive: -15%. Regarding `Clc1cccc(N2CCN(c3nc4ccccc4n4cnnc34)CC2)c1`, the “activity change, positive = activation” value is inactive: -6.66%.

With `COc1ccc(NC(=O)CCc2nnc3n(C)c(=O)c4sccc4n23)cc1`, the “activity change, positive = activation” value was inactive: 0.655%. Take `COc1ccc(C(=O)NCCn2cc(SCC(=O)Nc3cccc(C)c3)c3ccccc32)cc1`: the “activity change, positive = activation” value was inactive: -59.2%.

Consider `Cc1ccc(C)n1-c1c(C(=O)NCCC(C)C)sc2ncccc12`, for which the “activity change, positive = activation” value was inactive: 22%.

Turning to `COCCc1nn2c(=O)cc(COC(=O)c3ccc(OC)c(OC)c3)nc2s1`, the “activity change, positive = activation” value is inactive: -14.9%.

`Cc1oc2ncn(CC(C)C)c(=O)c2c1C(=O)N1CCN(c2cccc(C(F)(F)F)c2)CC1`: the “activity change, positive = activation” value is inactive: -18.2%. Consider `CCOC(=O)C1CCN(C(=O)Cn2c(=O)cc(C)c3c(C)nn(C)c32)CC1`, for which the “activity change, positive = activation” value was inactive: -32.1%.

Turning to `COc1cc(-c2nc3nc[nH]n3c2Nc2ccc(C(C)C)cc2)ccc1O`, the “activity change, positive = activation” value was inactive: -22.2%. As for `Cc1cccc(-n2ncc3c(Nc4ccc(Oc5ccc(Cl)cc5)cc4)ncnc32)c1`, the “activity change, positive = activation” value is inactive: -1.89%. With `Cc1cc(C)c(CSc2nnc(C)n3c2cc2occc23)c(C)c1` the figure was inactive: -12.4%; with `CCN(Cc1ccccc1)C(=O)c1nc(-c2cccc(F)c2)n2c1CCCCC2`, inactive: -29.8%. Consider `Cc1ccn2c(Nc3ccccc3C)c(-c3ccccn3)nc2c1`, for which the “activity change, positive = activation” value is inactive: -45.9%. In the case of `COCCCNC(=O)C1CCCN(C(=O)c2cnn(-c3ccc(F)cc3)c2-n2cccc2)C1` (stereo not drawn), the “activity change, positive = activation” value is inactive: 4.07%.

As to `Cc1ccc(SCc2nc(-c3ccc(C(=O)NCc4ccc(Cl)cc4)cc3)oc2C)cc1`, the “activity change, positive = activation” value was inactive: -8.69%. As for `O=C(NC1CCCCC1)c1cc(Nc2cccc(C(F)(F)F)c2)nc2ccccc12`, the “activity change, positive = activation” value is inactive: -6.06%.

As for `COc1cc(C(=O)Nc2nc3nc(-c4ccccc4)cc(=O)n3[nH]2)cc(OC)c1OC`, the “activity change, positive = activation” value was inactive: -8.12%. As for `Cc1ccn2c(=O)cc(CSc3nnc(NC(=O)c4ccccc4Cl)s3)nc2c1`, the “activity change, positive = activation” value was inactive: -4.86%. With `COc1cc(NC(=O)c2noc3c2CSc2ccccc2-3)cc(OC)c1OC`, the “activity change, positive = activation” value was inactive: -4.89%.

For the molecule `COc1ccc(CNC(=O)c2cc3c(=O)[nH]c4ccccc4c3s2)cc1`, the “activity change, positive = activation” value is inactive: 0.0867%. In the case of `CCOC(=O)c1ccccc1NC(=O)CCOc1ccccc1`, the “activity change, positive = activation” value was inactive: -4.38%.

As for `Cc1cccc(N2CCN(C(=O)NCc3noc4ccccc34)CC2)c1C`, the “activity change, positive = activation” value is inactive: 0.0014%. As to `O=C(NC1CCCCC1)c1cc2c(Cl)nc3ccccc3c2s1`, the “activity change, positive = activation” value was inactive: -6.99%.

`CCOc1ccc(NC(=O)C(NS(=O)(=O)c2cccc3nsnc23)c2ccccc2)cc1` (stereo not drawn): the “activity change, positive = activation” value is inactive: -10.4%. With `COc1ccccc1CNC(=O)C(=O)NCC(c1ccco1)S(=O)(=O)c1cccs1` (stereo not drawn), the “activity change, positive = activation” value was inactive: -12%. Regarding `OCCCc1nc2ccccc2n1CCCCOc1ccccc1`, the “activity change, positive = activation” value is inactive: -18.3%. In the case of `Cc1cccc(-c2noc(CN(C(=O)COc3ccc(Br)cc3C)C(C)C)n2)c1`, the “activity change, positive = activation” value is inactive: -38.4%. For the molecule `O=C(CCN1CCN(CCO)CC1)N1c2ccccc2Sc2ccc(C(F)(F)F)cc21`, the “activity change, positive = activation” value is inactive: -8.24%. In the case of `CCn1c(=O)n(CC)c2cc(N3CCCCC3)c(NC(=O)Nc3cc(C)cc(C)c3)cc21`, the “activity change, positive = activation” value was inactive: -32.8%. Regarding `CCn1cc(C(=O)N2CCN(c3cc(C)ccc3C)CC2)c(=O)c2cc(S(=O)(=O)N3CCOCC3)ccc21`, the “activity change, positive = activation” value is inactive: -12.3%. Regarding `COc1ccc(Cl)cc1NC(=O)Cn1c(=O)n(Cc2ccco2)c(=O)c2cccnc21`, the “activity change, positive = activation” value was inactive: -28.1%. As for `O=c1nc2sc3ccccc3n2c(=O)n1-c1ccc(Cl)c(Cl)c1`, the “activity change, positive = activation” value is inactive: 9.28%.

In the case of `O=C1NCCc2[nH]c(-c3ccncc3)cc21`, the “activity change, positive = activation” value is inactive: -31%. For `O=C1c2[nH]nc(-c3ccccc3O)c2C(c2ccc(Cl)cc2)N1Cc1ccco1` (stereo not drawn), the “activity change, positive = activation” value is inactive: -24.7%. For `Cc1ccc(NC(=O)c2cccc(N(C)C)c2)cc1NC(=O)c1ccc(O)cc1`, the “activity change, positive = activation” value was inactive: -11.1%.

In the case of `COc1ccccc1NC(=O)Cn1c(=O)n(-c2cccc(C(C)=O)c2)c(=O)c2c3c(sc21)CN(C(C)=O)CC3`, the “activity change, positive = activation” value was inactive: -7.41%. For the molecule `CCN1CCN(C(=O)c2cnn(-c3ccc(F)cc3)c2-n2cccc2)CC1`, the “activity change, positive = activation” value was inactive: -8.39%. Regarding `Cc1ccc(C2C=C(c3ccc(Cl)cc3)Nc3nc(NS(=O)(=O)c4ccccc4)nn32)cc1` (stereo not drawn), the “activity change, positive = activation” value was inactive: -16.6%. Turning to `O=C(CCC1N=C2c3ccccc3N=C(SCC(=O)Nc3ccccc3F)N2C1=O)NCc1ccccc1` (stereo not drawn), the “activity change, positive = activation” value was inactive: -9.24%. As for `Cc1ccc(CNC(=O)CCCCn2c(=O)c3ccccc3n(Cc3c(C)cc(C)cc3C)c2=O)cc1`, the “activity change, positive = activation” value is inactive: -8.59%. Regarding `COc1cccc(NC(=O)CSC2=Nc3ccccc3C3=NC(CC(=O)NCCc4ccccc4)C(=O)N23)c1` (stereo not drawn), the “activity change, positive = activation” value is inactive: -25.6%.

Values taken from PubChem BioAssay AID1508624 (National Center for Advancing Translational Sciences (NCATS), 2021).
